From PubChem BioAssay (NCI)
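1) Cells in 96-well plates. 2) Compound, 48 h, 5 concentrations. 3) Linear interpolation between surrounding doses. 4) Unreached endpoint = highest concentration. TGI denotes the concentration required for complete inhibition of growth.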

Tested on: NCI-H322M lung
Assay: growth of human tumour cells (NCI), 48 h

`COc1ccc(-n2cnc3c(NC(C)(C)C(=O)O)ncnc32)cc1` was tested, and the TGI was over 100 µM.
